In paper PMC6465249:

Biological target: H7-AH/13 HA (hemagglutinin of H7N9 A/Anhui/1/2013) (influenza A virus H7N9 A/Anhui/1/2013)

B1: AF4H1K1 IgG (antibody, V domains shown)
VH: QVQLVESGGGVVQPGTSLRLSCEASGFTSSAYAMHWVRQAPGKGLEWVAVITFDGGYQYYADSVKGRFTISRDISRNTLHLHMNSLRAEDTAVYYCARDPLTKLLPFDWVSGGYFDYWGQGTLVTVSS
VL: DIVMTQSPGTLSLSPGERATLS[not shown - about 80 residues]FGQGTKVEIK
With B1 the IC50 of neutralisation of H7N9 A/Anhui/1/2013 (H7-AH/13), microneutralisation was over 200 µg/mL.
